# Laboratory results as given in the supplement of paper PMC10126150.
# Sequences with one replicate were seen in a single cluster, so their values are uncertain.
# Test system: ATP
# Assay: switch fluorescence ratio, 500 uM ATP over buffer (Cy3 cluster intensity, sum of 5 cycles each) (fold (ratio)); higher = stronger signal-on switching upon ATP binding; sequences stand for … in TCGTCGGCAGCGTCAGATGTGTATAAGAGACAGTTTTTTTTTTTTTTTTTTTTTTTTT…TC
# Conditions: aptamer strand: ATP DNA aptamer (quencher-CACCTGGGGGAGTATTGCGGAGGAAGG + anchor), 100 nM annealed; ATP concentration: 500 uM; one replicate
# In short: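 After annealing to 100 nM quencher-labelled ATP aptamer, Cy3-labelled switching-strand clusters on a modified Illumina MiSeq flow-cell were imaged in selection buffer. A second image followed after 15 min with 500 uM ATP at 22 °C, and five such buffer/ATP cycles were done, each separated by NaOH stripping and re-annealing. The fluorescence ratio, averaged per switch-domain sequence, is summed target-cycle over summed buffer-cycle Cy3 intensity per cluster, with clusters outside 100-1000 RFU excluded.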
# 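Also: ATP exposure 15 min at 22 °C before imaging.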
row,Sequence,switch fluorescence ratio
1,CCGAGGTGCG,0.999
2,CCGAGTAATT,3.75
3,CCGAGTCGTT,1.01
4,CCGAGTTTCT,1.12
5,CCGATATGCG,1.02
6,CCGATCACAC,3.11
7,CCGATCTTAG,1.12
8,CCGATGGATG,1.26
9,CCGATTATTA,1.03
10,CCGATTTAAT,1.14
11,CCGATTTGTT,1.04
12,CCGCACAGA,5.03
13,CCGCACGGCG,1.31
14,CCGCAGCCTT,4.56
15,CCGCGATTGA,2.61
16,CCGCGGAGAA,1
17,CCGCGGCTCA,3.42
18,CCGCGGGCGT,1.23
19,CCGCTAGTG,1.64
20,CCGCTATGCG,1.65
21,CCGCTCCCCG,1.16
22,CCGCTCCTTA,1.37
23,CCGCTTTCGC,2.42
24,CCGGAAAGCC,1.02
25,CCGGAATAGT,4.39

row,Sequence,switch fluorescence ratio
1,CCGGAATCGC,3.52
2,CCGGACCAGG,1.79
3,CCGGACGTAC,3.05
4,CCGGACTATG,0.963
5,CCGGAGGGCC,1.17
6,CCGGCCTCCA,2.57
7,CCGGGAAATC,1.3
8,CCGGGAGGT,0.985
9,CCGGGATTT,1.01
10,CCGGGCAAGG,3.4
11,CCGGGGAATT,1.11
12,CCGGGGATGG,1.04
13,CCGGGGGTAA,1.11
14,CCGGGTCCTA,0.964
15,CCGGGTCTGA,1.03
16,CCGGTAACAA,2.29
17,CCGGTAACCC,1.1
18,CCGGTCCGAC,1.7
19,CCGGTCGCTG,1.05
20,CCGGTGAACT,1.15
21,CCGGTGCAGT,4.19
22,CCGGTGGAG,1.01
23,CCGGTGTATT,1.1
24,CCGTAACTTA,1.27
25,CCGTACGAGA,1.64

row,Sequence,switch fluorescence ratio
1,CCGTAGGCAC,2.87
2,CCGTATGGGC,1.06
3,CCGTATGGTT,1.02
4,CCGTATGT,0.986
5,CCGTCAATTG,2.04
6,CCGTCAGTCG,1.04
7,CCGTCATCAC,4.46
8,CCGTCGGGCC,1.1
9,CCGTCTCGGG,1.01
10,CCGTCTTGAA,1.02
11,CCGTGAGACT,1.25
12,CCGTGATGCG,1.18
13,CCGTGCCGCT,1
14,CCGTGCGTCA,1.32
15,CCGTGCTCAG,1.13
16,CCGTGCTTTC,1.9
17,CCGTGGGATT,1.01
18,CCGTGTGGAC,1.2
19,CCGTGTTACC,1.82
20,CCGTGTTTGG,1.03
21,CCGTTAATTA,1.13
22,CCGTTAATTT,1.18
23,CCGTTAGGCA,1.04
24,CCGTTATATG,1.21
25,CCGTTGAG,1.06

row,Sequence,switch fluorescence ratio
1,CCGTTGCTAG,1.14
2,CCGTTGGGGA,0.991
3,CCGTTTTGCT,0.979
4,CCTAAACATG,0.989
5,CCTAACCGGG,1.17
6,CCTAAGAATT,1.03
7,CCTAAGTATG,1.01
8,CCTACACACG,1.59
9,CCTACACGAT,4.77
10,CCTACGGGAC,6.2
11,CCTACGGGGT,1.81
12,CCTACTCACG,1.6
13,CCTAGACGGC,0.999
14,CCTAGAGCCC,1.08
15,CCTAGGGC,0.968
16,CCTAGTAATT,1.13
17,CCTAGTGACG,0.943
18,CCTATAAGTT,0.946
19,CCTATAGCGT,1.37
20,CCTATATA,0.987
21,CCTATATAA,1.03
22,CCTATCGTCA,1.61
23,CCTATGAGGG,1.45
24,CCTATGTCGC,1.03
25,CCTATTAAAT,0.972

row,Sequence,switch fluorescence ratio
1,CCTATTTATG,0.963
2,CCTCAATTAG,2.05
3,CCTCATCTGT,1.09
4,CCTCCCCGTT,1.68
5,CCTCCGTTCG,3.35
6,CCTCGACCTC,1.46
7,CCTCTCTGTT,0.998
8,CCTCTGCCTT,3.34
9,CCTCTGGGGT,1.57
10,CCTCTTTATG,1.07
11,CCTCTTTTGT,1
12,CCTGAAAGTT,1.11
13,CCTGAAGCAT,3.03
14,CCTGACCGGA,1.04
15,CCTGATAGGA,1.01
16,CCTGCGGCGG,1.42
17,CCTGCTATCC,2.66
18,CCTGGCGCTC,2.28
19,CCTGGGCGCG,0.992
20,CCTGGGTGAG,1.19
21,CCTGGTAGTC,1.08
22,CCTGGTCCTT,0.94
23,CCTGGTGTAA,1.08
24,CCTGTAAGTC,1.09
25,CCTGTAGGGG,1.01

row,Sequence,switch fluorescence ratio
1,CCTGTCCAAA,1.1
2,CCTGTCCGCT,1.86
3,CCTGTCGCTT,2.17
4,CCTGTCTTAC,1.57
5,CCTGTTATAT,1.03
6,CCTGTTATTT,1.05
7,CCTGTTCCGT,0.952
8,CCTTAGTTTG,1.05
9,CCTTATATAA,0.958
10,CCTTATCTAT,1.01
11,CCTTATTTAG,1.01
12,CCTTCAATAG,1.15
13,CCTTCGAGCA,3.22
14,CCTTCGGTCT,1.15
15,CCTTCGTGCG,1.94
16,CCTTGAGTGA,1.22
17,CCTTGCAACC,3.7
18,CCTTGCTCAC,4.07
19,CCTTGGAAGG,1.01
20,CCTTGGCACT,2.38
21,CCTTGGGGCG,1.07
22,CCTTTCAATG,1.39
23,CCTTTCCTTC,1.33
24,CCTTTTAACA,1.01
25,CCTTTTAGTG,1.03

row,Sequence,switch fluorescence ratio
1,CCTTTTCTGT,0.964
2,CCTTTTGGTT,1.02
3,CGAAAACACA,0.951
4,CGAAAAGCCA,0.975
5,CGAAAATTGA,0.965
6,CGAAAGCTTA,1.11
7,CGAAAGGATT,0.957
8,CGAAATTGAT,0.99
9,CGAAATTTCC,1.07
10,CGAACACTTG,0.991
11,CGAACAGCT,1.02
12,CGAACCCCGT,0.947
13,CGAACGGCAA,3.94
14,CGAACTGCTC,1.11
15,CGAAGACTTG,0.99
16,CGAAGATACG,1.06
17,CGAAGATCAG,0.971
18,CGAAGGTGTG,0.937
19,CGAATAAGCC,1
20,CGAATACCTT,1.13
21,CGAATATCAG,0.979
22,CGAATCATTT,0.94
23,CGAATCGTC,1.02
24,CGAATGACAT,1.01
25,CGAATGATTC,1.02

row,Sequence,switch fluorescence ratio
1,CGAATGCCAG,0.915
2,CGAATTGGGA,1.03
3,CGAATTTAGA,1.03
4,CGACACATTA,1.63
5,CGACAGCATT,3.22
6,CGACAGGCG,1.04
7,CGACAGGCTT,1.05
8,CGACAGGGGT,4.33
9,CGACAGTTTT,0.988
10,CGACATATGA,1.03
11,CGACCCGCT,1.21
12,CGACCTGAT,1.13
13,CGACGACCTC,1.88
14,CGACGATGAG,1.04
15,CGACGCGTCT,1.13
16,CGACGGGAGC,1.1
17,CGACGGGTTG,0.944
18,CGACGTGGAG,1.03
19,CGACTAATTC,1.32
20,CGACTAATTT,1.01
21,CGACTACGAG,1.09
22,CGACTATAGT,0.945
23,CGACTCACTC,1.79
24,CGACTCAGCG,1.04
25,CGACTCTAGA,1.07
